According to patent US20190314531A1 (Johns Hopkins, published 2019):

Molecular target: T1, recombinant human PD-L1(B7-H1)-His-tag protein (catalog #9049-B7, R&D systems) (human, UniProt Q9NZQ7 partial chain)
T1 construct: Bought; also called PD-L1-His-tag; not shown: His-tag
Assay: FRET binding assay, PD-L1-His-tag titrated on PD-1-Ig

B1: Recombinant Human PD-1 Fc chimera Protein (catalog #1086-PD-050, R&D systems) (Fc fusion)
chain: not shown
notes: Bought; also called PD-1-Ig; not shown: Fc part (detected with anti-human IgG)
Kd: 69.7 nM
